Whole data set: some 110,000 compounds, median “z-score” near -0.1, cut for the highest 2% near 2. Some of the results follow.
target: Metabotropic glutamate receptor 8 (Rattus norvegicus) (UniProt P70579); assay: mGluR8 Gi/Go-coupled signaling modulation – cell-based, rat, thallium flux, HTS, primary screen (AID 488969); details: HEK293 rat mGluR8, GIRK (G protein-gated inwardly rectifying potassium channel) thallium flux, FluoZin2; at 10 µM; stronger effect = higher value; submaximal glutamate (EC20) added with thallium
Sequence of UniProt P70579 (P70579 whole entry, looked up): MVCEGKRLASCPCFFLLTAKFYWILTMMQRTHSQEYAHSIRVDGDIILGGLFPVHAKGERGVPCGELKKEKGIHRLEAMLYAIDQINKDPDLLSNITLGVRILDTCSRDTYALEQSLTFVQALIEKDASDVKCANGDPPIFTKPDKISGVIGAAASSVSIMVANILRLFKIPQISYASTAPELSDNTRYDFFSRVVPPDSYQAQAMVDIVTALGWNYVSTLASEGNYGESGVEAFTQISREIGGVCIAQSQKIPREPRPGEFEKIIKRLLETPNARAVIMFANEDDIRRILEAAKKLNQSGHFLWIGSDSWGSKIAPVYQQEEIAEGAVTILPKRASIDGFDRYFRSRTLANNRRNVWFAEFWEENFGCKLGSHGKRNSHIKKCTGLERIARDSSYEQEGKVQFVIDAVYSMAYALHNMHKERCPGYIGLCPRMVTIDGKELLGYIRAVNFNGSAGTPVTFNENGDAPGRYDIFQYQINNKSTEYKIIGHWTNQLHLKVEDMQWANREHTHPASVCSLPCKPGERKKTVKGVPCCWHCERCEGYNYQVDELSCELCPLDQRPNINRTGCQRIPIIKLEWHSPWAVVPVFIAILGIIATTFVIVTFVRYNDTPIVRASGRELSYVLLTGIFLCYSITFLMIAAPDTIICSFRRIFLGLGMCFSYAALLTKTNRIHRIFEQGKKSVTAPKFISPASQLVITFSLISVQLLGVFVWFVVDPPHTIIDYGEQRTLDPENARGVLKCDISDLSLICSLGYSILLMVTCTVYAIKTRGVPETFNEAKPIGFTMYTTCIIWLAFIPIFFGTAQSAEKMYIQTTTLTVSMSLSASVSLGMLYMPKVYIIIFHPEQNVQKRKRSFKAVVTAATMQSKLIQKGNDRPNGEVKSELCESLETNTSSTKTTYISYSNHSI

| Structure (SMILES) | z-score |
| --- | --- |
| Cc1nn(C)cc1NC(=O)c1nn(C)cc1[N+](=O)[O-] | -0.0975 |
| CCOC(=O)c1ccc(NC(=O)CCOc2ccccc2)cc1 | 1.6 |
| CC(=O)N1CCN(C2c3cccc4cccc(c34)C2NS(=O)(=O)c2ccccc2)CC1 (configuration not stated) | 1.58 |
| COc1cc(NC(=O)C2CCN(S(=O)(=O)c3cccnc3)CC2)cc(OC)c1OC | 0.263 |
| CCn1c(CCn2c3ccccc3c3ccccc32)n[nH]c1=S | -0.105 |
| Cc1nnc(NC(=O)c2cccc(Br)c2)s1 | 0.388 |
| CC(NC(=O)CSC(=S)N(C)C)C12CC3CC(CC(C3)C1)C2 (configuration not stated) | -0.229 |
| C/C(=N\NC(=S)NCCc1ccccc1)c1ccc(C#N)cc1 | 0.203 |
| O=C(NC1CCCCC1)N1CCN(C(c2ccccc2)c2ccccc2)CC1 | -0.157 |
| N=c1scc(-c2ccccc2)n1/N=C/c1ccco1 | -0.0997 |
| Cn1ccnc1SCc1nc2c(cnn2-c2ccccc2)c(=O)[nH]1 | 0.234 |
| NC(=O)CCC(NS(=O)(=O)c1ccc(Cl)cc1)C(=O)NCc1ccc(Cl)cc1 (configuration not stated) | 0.871 |
| COC(=O)c1ccc(N2CCN(S(=O)(=O)c3ccc(Br)cc3)CC2)c([N+](=O)[O-])c1 | -0.0472 |
| O=C(c1ccc(F)cc1)n1ccc(-c2cnc(-c3ccccc3)s2)n1 | -0.292 |
| CCNC(=O)COC(=O)CNC(=O)c1cc(Cl)cc([N+](=O)[O-])c1 | -0.0822 |
| CCN(CC)CCN1C(=O)C(=O)/C(=C(/O)c2ccc(F)cc2)C1c1cccnc1 (configuration not stated) | -0.378 |
| CN1CCN(S(=O)(=O)c2cc([N+](=O)[O-])ccc2N2CCCCCC2)CC1 | 0.095 |
| O=c1c2cc(-c3ccccc3)sc2ncn1-n1cccc1 | -0.00252 |
| Cc1ccc(-c2ccc(CCC(=O)O)n2Cc2ccco2)cc1 | -0.00553 |
| COc1ccc(NS(=O)(=O)c2cc(C)ccc2NC(=O)c2cc(C)oc2C)cc1 | -0.849 |
| CCOC(=O)c1c(-c2ccc(Cl)cc2)cn2ccccc12 | -0.133 |
| O=C(Nc1ccc(Cl)cc1)NC1CCCc2ccccc21 (configuration not stated) | 0.0936 |

| Structure (SMILES) | z-score |
| --- | --- |
| Cc1ccc2[nH]cc(CCNC(=O)c3ccc([N+](=O)[O-])cc3)c2c1 | -0.58 |
| O=[N+]([O-])c1cc(C(F)(F)F)ccc1NCCc1c[nH]c2ccccc12 | -0.0868 |
| CCCc1nnc(NC(=O)C(C)N2C(=O)C3C4C=CC(C4)C3C2=O)s1 (configuration not stated) | -0.121 |
| CC(C)CCNC(=O)CSc1nc2ccsc2c(=O)n1NC(=O)c1ccccc1 | -0.0204 |
| CC12C(=O)N(c3ccc(OC(=O)c4ccco4)cc3)C(=O)C1C1c3ccccc3C2c2ccccc21 (configuration not stated) | -0.124 |
| CCC(C)c1ccccc1OCCCCN1CCCC1 (configuration not stated) | 0.173 |
| O=C1OCCC1Sc1nnc(-c2cccc(Br)c2)o1 (configuration not stated) | -1.17 |
| COc1cccc(-c2csc(NC(=O)C3CC3)n2)c1 | -0.417 |
| CCOc1cccc(C(=O)NC(=S)Nc2cccc(C)c2)c1 | 0.426 |
| CN(C)c1nc(NS(=O)(=O)c2ccc(Cl)cc2)nc(N(C)C)n1 | 0.395 |
| O=C(OCc1ccc(C(=O)c2ccccc2)cc1)c1cccc(-c2nnc(-c3ccccc3)o2)c1 | -0.18 |
| Cc1ccc(N2CCN(C(=O)CN3C(=O)c4ccccc4C3=O)CC2)cc1 | 0.113 |
| Nc1nc(NCc2ccccc2)nc(Nc2cccc(F)c2)c1[N+](=O)[O-] | -0.183 |
| CC(=O)N1CSCC1C(=O)N1CCN(c2ccc(N3CCOCC3)nn2)CC1 (configuration not stated) | 0.156 |
| CC(C)C(C)(C#N)NC(=O)CSc1nnc(-c2ccncc2)n1Cc1ccccc1 (configuration not stated) | 0.023 |
| COc1cc(/C=N/NC(=O)c2cccs2)ccc1OCc1ccccc1 | 0.0363 |
| Cc1cc(C)n(-c2nc3c(c(=O)[nH]c(=O)n3C)n2Cc2ccccc2)n1 | -0.146 |
| CC(C)(C)n1nnnc1C(c1cccs1)N1CCN(Cc2ccccc2)CC1 (configuration not stated) | -0.135 |
| c1ccc(C(c2ccccc2)N2CCN(Cc3nnnn3C3CCCC3)CC2)cc1 | -0.35 |
| COc1ccccc1N1CCN(c2nc(-c3ccccc3)cc(C(F)(F)F)n2)CC1 | 0.995 |
| CCn1c(C)nc2cc(S(=O)(=O)N3CCCC3)ccc21 | -0.177 |
| Cc1ccc(N(Cc2cc3cc(C)ccc3[nH]c2=O)S(=O)(=O)c2ccccc2)cc1 | 0.0448 |

| Structure (SMILES) | z-score |
| --- | --- |
| COc1ccc(-n2c(C)nc3cc(C(=O)O)ccc32)cc1 | -0.104 |
| CCn1c(SCC(=O)NC2CCCCC2)nc2c(c1=O)SC(C)C2 (configuration not stated) | 0.213 |
| Cc1cc(C)nc(/N=C(\N)Nc2ccc([N+](=O)[O-])cc2)n1 | -0.477 |
| COC(=O)c1[nH]c2ccccc2c1NC(=O)/C=C/c1ccc2c(c1)OCO2 | 0.563 |
| COc1ccc2nc(-c3ccco3)c(-c3ccco3)nc2c1 | 0.264 |
| O=C(COc1cccc(F)c1)Oc1ccc(C(=O)c2ccccc2)cc1 | -0.0427 |
| O=C(CCN1C(=O)c2ccccc2C1=O)Nc1ccc(-c2nc3ccccc3s2)cc1 | -0.413 |
| O=C(c1ccc2c(c1)C(=O)N(Cc1ccco1)C2=O)N1CCOCC1 | -0.379 |
| COc1ccccc1/C=N/NC(=O)c1ccc(-c2ccccc2)cc1 | -0.445 |
| COC(=O)c1noc(-c2ccc(OC)cc2)n1 | -1.48 |
| Cc1cc(NS(=O)(=O)c2ccc(Nc3nc(-c4sc(N)nc4C)cs3)cc2)no1 | 0.0903 |
| O=C(CNCc1ccc(F)cc1)Nc1ccccc1-c1ccccc1 | -0.509 |
| Clc1ccc(-c2nnc(C3CCCCC3)o2)cc1 | 0.225 |
| O=C(NCc1cccs1)c1cc(-c2ccccc2)on1 | 0.293 |
| Cc1ccc(C)c(N(C(=O)Cn2nnc(-c3cccs3)n2)C(C(=O)NC2CCCC2)c2ccncc2)c1 (configuration not stated) | 0.000716 |
| Cc1c(C(=O)O)oc2c1/C(=N\O)CCC2 | -0.146 |
| O=C(Nc1ccc(Cl)cc1)N(CCCN1CCOCC1)Cc1cccs1 | -0.0662 |
| Cc1ccc(C)c(C(=O)COC(=O)c2cc([N+](=O)[O-])ccc2NCCO)c1 | 0.122 |
| Cc1ccc(NC(=O)Cc2sc(C)nc2-c2ccc(C)cc2)cc1 | -0.143 |
| CCCC/C(C)=N\NC(=O)CNS(=O)(=O)c1ccc([N+](=O)[O-])cc1 | -0.0725 |
| O=C(NCc1ccccc1)C(c1ccccc1)N(Cc1ccc2c(c1)OCO2)C(=O)Cc1cccs1 (configuration not stated) | -0.626 |
| O=C(O)c1ccc(NS(=O)(=O)c2ccc3c(c2)OCCO3)cc1 | 0.0717 |

| Structure (SMILES) | z-score |
| --- | --- |
| Fc1ccc(C(c2nnnn2Cc2ccco2)N2CCN(C3CCCCC3)CC2)cc1 (configuration not stated) | 2.31 |
| Cc1c(N=C2C(=O)Nc3ccccc32)c(=O)n(-c2ccccc2)n1C | -0.127 |
| COc1cc2c(cc1OC)C1=NC(=O)CN1C(SCc1ccccc1C)=N2 | -0.18 |
| Cc1cc(C)nc(N2CCCC(C(=O)NC(C)CCc3ccco3)C2)n1 (configuration not stated) | 0.506 |
| CC1(C)CC(=O)C(N=Nc2ccc3ncsc3c2)=C(O)C1 | 0.532 |
| CS(=O)(=O)N(CC(N)=O)c1ccc(F)c(Cl)c1 | -0.383 |
| Cc1ccc(C(=O)NCc2ccco2)cc1[N+](=O)[O-] | -0.196 |
| O=C(NN=C1CCCC1)c1ccn[nH]1 | 0.272 |
| CCOc1ccc2[nH]cc(C(=O)N3CCN(C4CCCCC4)CC3)c(=O)c2c1 | -0.123 |
| O=C(O)c1sc2cc(C(F)(F)F)cnc2c1-c1ccccc1 | -0.272 |
| COCCn1c(-c2ccc(OC)cc2)nc2ccccc21 | 1.01 |
| Clc1nc(Cl)nc(N(c2ccccc2)c2ccccc2)n1 | -0.0382 |
| CC(=O)c1c(C)nc(-c2ccccc2)n1O | 0.16 |
| CC(=O)C1=C(C)NC(SCC(=O)c2ccc(-c3ccccc3)cc2)=C(C#N)C1c1cccnc1 (configuration not stated) | -0.244 |
| CCCc1cc2c(OC(=O)CC)c(-c3ccc(C(=O)OCC)o3)c(=O)oc2cc1OC | 0.457 |
| COc1ccccc1C1N(c2cc(Cl)ccc2OC)C(=O)C2CCCN21 (configuration not stated) | -0.16 |
| CC(C)(C)NS(=O)(=O)c1ccc(Oc2ncc(C(F)(F)F)cc2Cl)cc1 | 0.0117 |
| CCCCOc1ccc(C(=O)N/N=C/c2cn[nH]c2-c2ccc(OC)c(OC)c2)cc1 | 0.155 |
| COc1cccc(C(=O)N/N=c2\oc3c(OC)cccc3cc2C(=O)NCc2ccccc2)c1 | -0.203 |
| COc1cc([N+](=O)[O-])ccc1NC(=S)Nc1cccc(C(=O)O)c1 | 0.18 |
| Cc1cc(C)cc(NC(=S)N2CCC(c3nc4ccccc4s3)CC2)c1 | -0.207 |
| Cc1cccc(NC(=S)N(CCN(C)C)C(C)c2ccco2)c1 (configuration not stated) | -0.449 |

| Structure (SMILES) | z-score |
| --- | --- |
| COc1ccc2ncc(S(=O)(=O)c3ccccc3)c(N3CCN(c4ccccc4)CC3)c2c1 | -0.216 |
| COc1cccc(-c2cc(C(=O)N3CCc4ccccc4C3)no2)c1 | 0.252 |
| Cc1ccc(NC(=O)CN2CCC(NC(=O)Cc3ccccc3)CC2)cc1C | -0.117 |
| O=C1c2ccccc2C(=O)N1CCc1nc(-c2ccc(Cl)cc2)no1 | -0.122 |
| O=C(CCC1CCCC1)N1CCN(S(=O)(=O)Cc2ccccc2)CC1 | -0.116 |
| CN1CCN(c2ccc(Cl)cc2NC(=O)c2cccc(S(=O)(=O)N(C)C)c2)CC1 | 0.0431 |
| Cc1nc2ccc(S(=O)(=O)NC(C(=O)N3CCn4c3nc3ccccc34)C(C)C)cc2s1 (configuration not stated) | -0.155 |
| CCOC(=O)C1=C(C)N(c2ccc(C)c(C)c2)C(=O)/C1=C\c1ccco1 | 0.215 |
| COc1cc([N+](=O)[O-])ccc1NC(=O)CC1SC(=Nc2ccc(F)cc2)N(CCC2=CCCCC2)C1=O (configuration not stated) | 0.661 |
| Cc1ccc(CSc2ncnc3c2cnn3-c2ccc(C)cc2)cc1 | 1.75 |
| CSc1nc2cc(F)c(F)cc2n1C | -0.321 |
| COc1cc(OC)cc(-n2nnnc2SCC(=O)Nc2ccc(C(C)=O)cc2)c1 | -0.0985 |
| C#CC(CO)N(CCN(Cc1ccccc1)C(C#C)CO)Cc1ccccc1 (configuration not stated) | 2.19 |
| COC(=O)c1ccccc1OCCOCCOc1cccc2cccnc12 | -0.257 |
| C/C(CCc1ccc2c(c1)OCO2)=N\N=C1\NC(=O)CC(C(=O)Nc2ccccc2)S1 (configuration not stated) | -0.242 |
| Cc1ccc(OCC2Cn3c(nc4c3c(=O)[nH]c(=O)n4C)O2)cc1 (configuration not stated) | -0.258 |
| CCOC(=O)c1c(NC(=O)COC(=O)Cn2c(C)nc3ccccc32)sc2c1CCCC2 | -0.431 |
| CC(=O)N(c1ccccc1)c1nc(C)cc(C)c1C#N | -0.111 |
| CCCN(CCC)c1nc(N)c(C#N)c(CC#N)c1C#N | -0.93 |

Source: PubChem BioAssay AID488969 (Vanderbilt High Throughput Screening Facility, 2010)
